According to PubChem BioAssay AID488969 (Vanderbilt High Throughput Screening Facility, 2010):
Whole data set: some 110,000 compounds, median “z-score” near -0.1, cut for the highest 2% near 2. Some of the results follow. Calls of active or inactive are those of the source.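 The calls were made as follows: active = z-score in the third read window above 3 or below -3; inactive = the rest.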

target: Metabotropic glutamate receptor 8 (Rattus norvegicus) (UniProt P70579); experiment: rat mGluR8 modulators via GIRK flux, primary screen, cell-based, thallium flux, HTS (AID 488969); conditions: HEK293 rat mGluR8, GIRK (G protein-gated inwardly rectifying potassium channel) thallium flux, FluoZin2; at 10 µM; stronger effect = higher value; submaximal glutamate (EC20) added with thallium
Chain of UniProt P70579 (P70579 whole entry, looked up): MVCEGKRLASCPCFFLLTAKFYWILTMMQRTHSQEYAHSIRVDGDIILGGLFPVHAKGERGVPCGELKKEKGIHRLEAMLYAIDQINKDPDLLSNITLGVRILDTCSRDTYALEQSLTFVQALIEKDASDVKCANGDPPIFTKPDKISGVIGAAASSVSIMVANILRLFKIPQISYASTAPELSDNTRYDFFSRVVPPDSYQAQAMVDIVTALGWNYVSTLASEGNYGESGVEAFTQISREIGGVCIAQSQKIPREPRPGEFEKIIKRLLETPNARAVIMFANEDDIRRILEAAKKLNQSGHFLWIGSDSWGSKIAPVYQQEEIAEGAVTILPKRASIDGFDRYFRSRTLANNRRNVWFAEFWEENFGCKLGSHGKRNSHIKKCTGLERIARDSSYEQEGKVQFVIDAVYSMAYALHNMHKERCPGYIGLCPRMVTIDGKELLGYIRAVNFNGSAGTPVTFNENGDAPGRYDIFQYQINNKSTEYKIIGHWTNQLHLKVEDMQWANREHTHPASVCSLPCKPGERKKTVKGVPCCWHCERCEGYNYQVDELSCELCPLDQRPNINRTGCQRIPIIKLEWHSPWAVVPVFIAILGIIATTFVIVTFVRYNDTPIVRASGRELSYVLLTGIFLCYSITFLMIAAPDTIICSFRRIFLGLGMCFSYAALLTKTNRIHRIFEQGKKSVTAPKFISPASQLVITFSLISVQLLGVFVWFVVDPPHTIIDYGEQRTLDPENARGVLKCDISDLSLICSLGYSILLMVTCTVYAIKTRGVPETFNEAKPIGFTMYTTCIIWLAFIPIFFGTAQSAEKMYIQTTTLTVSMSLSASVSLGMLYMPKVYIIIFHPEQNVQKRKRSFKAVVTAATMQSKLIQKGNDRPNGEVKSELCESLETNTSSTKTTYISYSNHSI

Structure (SMILES) | z-score
COc1cccc(C(C#N)N2CCCCC2)c1O (stereo not given) | -0.0959
Cc1ccc(N2CN(Cc3ccco3)CNC2=S)c(C)c1 | -0.116
O=C(C1CCCO1)N1CCN(c2ncccn2)CC1 (stereo not given) | 0.975
CCN(C(=O)CSc1nnc2c3ccccc3n(CC)c2n1)C1CCS(=O)(=O)C1 (stereo not given) | -0.214
CCOc1ccc(-n2c(C)nc3cc(C(=O)NCc4ccco4)ccc32)cc1 | 0.364
Cc1cc(C(=O)N2CCN(c3ncccn3)CC2)sc1-c1ccccc1 | -0.488
COCCCNCCCCOc1ccccc1-c1ccccc1 | 0.319
CCOC(=O)C(O)(CCC(O)(C(=O)OCC)C(=O)OCC)C(=O)OCC | 0.0508
NC(=O)c1c(C(F)(F)F)cc(-c2ccccc2)nc1NCCO | -0.157
CC(C)(C)NC(=O)C(c1ccsc1)N(CCc1ccccc1)C(=O)Cn1nnc2ccccc21 (stereo not given) | -0.173
CCOC(=O)c1ccc2c(c1)nc(SCC(=O)c1ccco1)n2CC | -0.142
CC(=O)Nc1cc(C(=O)OCC(=O)c2ccc(Cl)cc2Cl)ccc1C | 0.0985
Cc1ccc(C)c(OCC(=O)Nc2ccc(S(=O)(=O)Nc3ccccn3)cc2)c1 | -0.116
CC(C)NC(=O)COC(=O)CNC(=O)c1cc(Cl)cc([N+](=O)[O-])c1 | -0.346
CCC(C)(C)n1nnnc1C(c1ccc(C)cc1)N1CCN(Cc2ccc3c(c2)OCO3)CC1 (stereo not given) | 0.434
CC1CN(C(=O)c2cnn3c(C(F)F)cc(-c4ccccc4)nc23)CC(C)O1 (stereo not given) | -0.152
O=C1CN(C(=O)CSc2nc3ccccc3c(=O)n2Cc2ccc(F)cc2)c2ccccc2N1 | active: 3.79
COc1cccc(N2C(N)=NC(N)=NC2(C)C)c1 | -0.232
COc1ccc(NC(=O)C(NC(C)=O)C(=O)NCc2ccccc2OC)cc1 (stereo not given) | -0.0786
O=C(NCCCCCCCCCNC(=O)C(F)(F)F)C(F)(F)F | 0.183
CCCCCNc1nc2ccccc2nc1NS(=O)(=O)c1cccs1 | -0.306
C/C(=N/NC(=O)c1cc(C(C)C)[nH]n1)c1cccs1 | -0.349
COCCNS(=O)(=O)c1cccn1-c1ncc(C(F)(F)F)cc1Cl | -0.124
COC(=O)c1cccc(NC(=O)Nc2ccc(Cl)c(Cl)c2)c1 | -0.235
CCC1(CC)N([O-])C(C)=C(c2ccccc2)[N+]1=O | -0.141
CN(CC(=O)Nc1nc2ccccc2s1)S(=O)(=O)c1ccc(Cl)cc1 | 1.52
O=C(Cc1ccc(F)cc1)Nc1cccc2cccnc12 | -0.309
CN(CC(=O)Nc1cccnc1)S(=O)(=O)c1ccccc1 | -0.0827

Structure (SMILES) | z-score
CCC(C)(C)C1CCC(=NNS(=O)(=O)c2ccc(C)c([N+](=O)[O-])c2)CC1 (stereo not given) | -0.725
CC(C)(C)C(=O)N1CCC(O)(CS(=O)(=O)Cc2ccccc2Cl)CC1 | 0.0412
Cc1ccc(NC(=S)NC(=O)c2ccc(-c3ccccc3)cc2)c(C)c1 | 0.373
CCCC(=O)Nn1cnc2c(c1=O)C1(CCCCC1)Cc1ccccc1-2 | -1.17
C=CCOc1ccc(Oc2cc(C)nc(SC)n2)nn1 | -0.1
O=C(CN1CCN(Cc2ccccc2F)C1=O)NCc1ccco1 | -0.159
O=S(=O)(c1ccc(Sc2nnc3ccccn23)nc1)N1CCOCC1 | -0.242
CS(=O)(=O)N1CCN(c2ccccc2NC(=O)Cc2ccccc2)CC1 | 0.395
Clc1ccc(-n2ncc3c(NCCCn4ccnc4)ncnc32)cc1 | 0.106
CN(C1CCS(=O)(=O)C1)S(=O)(=O)c1ccc(C2CCCCC2)cc1 (stereo not given) | 0.314
COC(=O)c1cc(C(=O)OC)n(Cc2ccc(Br)cc2)n1 | -0.538
CC(OC(=O)CCN1C(=O)c2cccc([N+](=O)[O-])c2C1=O)C(=O)Nc1cc(Cl)cc(Cl)c1 (stereo not given) | -0.338
CC1(C)Cc2c(C#N)c(N3CCN(C(=O)c4ccccc4)CC3)nc(-c3ccco3)c2CS1 | -0.316
O=C(CCc1ccccc1)Nc1cc(C(F)(F)F)ccc1Cl | -0.45
CCCS(=O)(=O)N1CCC(C(=O)NCCCOC)CC1 | -0.0448
Nc1ccc(C(=O)Nc2ccc(OC(F)(F)C(F)F)c(NC(=O)c3ccc(N)cc3)c2)cc1 | -0.219
CCOC(=O)C1=C(C)NC(=S)NC1c1ccc(-c2cccc(Cl)c2C)o1 (stereo not given) | -0.0797
C/C(=N\NS(=O)(=O)c1ccccc1)c1cccc(NC(=O)c2cccc(Cl)c2)c1 | -0.0447
COc1ccc(S(=O)(=O)Nc2cc(C)ccn2)cc1OC | 0.0856
C=CCOc1ccc(C(=O)NC2CCCCC2)cc1 | -0.0969
CC(NC(=O)Nc1nnc(C(F)(F)F)s1)N1C(=O)C2C3C=CC(C3)C2C1=O (stereo not given) | 0.0447
Cc1ccc(NS(=O)(=O)c2ccc(Cl)c(NC(=S)NC(=O)C3CCCCC3)c2)cc1Cl | 0.508
Cc1ccc(CNC(=O)C2CCN(S(=O)(=O)c3cccs3)CC2)o1 | 0.486
CCc1ccccc1NC(=O)CSc1nnc(-c2ccco2)n1N | -0.154
COc1cccc(OC)c1C(=O)N1CCN(Cc2ccc3c(c2)OCO3)CC1 | 0.242
Cc1ccc2nc(-c3cccc(N)c3)[nH]c2c1 | -0.0989
O=S(=O)(NCc1cccnc1)c1cccc2cccnc12 | -0.0796
